# From the supplement of paper PMC4604168 (melanoma cell lines)
# Some of the results follow. Single values are uncertain, as repeats are few or missing.
# Experiments:
# Test in all cases: cell count relative to DMSO control; melanoma cells; higher = more viable cells
# Settings in all cases: library dose: low library concentration; 72 h
# MZ2-MEL = test system: MZ2-MEL
# MeWo = test system: MeWo
# RPMI7951 = test system: RPMI7951
# RVH-421 = test system: RVH-421
# SkMel28 = test system: SkMel28
# SkMel30 = test system: SkMel30
# SkMel5 = test system: SkMel5
# UACC257 = test system: UACC257
# UACC62 = test system: UACC62
# SkMel2 = test system: SkMel2
# 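Also: cell number obtained by counting DAPI-stained nuclei in high-throughput microscope images with image analysis software, screen run in 1,536-well plates.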
Compound,cell count (MZ2-MEL),cell count (MeWo),cell count (RPMI7951),cell count (RVH-421),cell count (SkMel28),cell count (SkMel30),cell count (SkMel5),cell count (UACC257),cell count (UACC62),cell count (SkMel2)
"C#Cc1cccc(Nc2ncnc3cc(OCCOC)c(OCCOC)cc23)c1 [erlotinib] + COc1cc(N2CCC(N3CCN(C)CC3)CC2)ccc1Nc1ncc(Cl)c(Nc2ccccc2S(=O)(=O)C(C)C)n1 [NVP-TAE684] (first compound 0.8 µM, partner dose 0.08 µM)",95.3%,77.8%,109%,97.3%,82.2%,82.3%,90.1%,79.2%,89.8%,
"COCC[n+]1c2c(n(Cc3cnccn3)c1C)C(=O)c1ccccc1C2=O + O=C(O)C(=O)Nc1sc2c(c1C(=O)O)CCNC2 [TCS401] (first compound 0.0004 µM, partner dose 1.66667 µM)",53.1%,80.2%,81.1%,111%,90.6%,103%,76.9%,96.2%,95.8%,
"Nc1cccc2c1CN(C1CCC(=O)NC1=O)C2=O (stereo not given) [lenalidomide] + Cc1cc([N+](=O)[O-])ccc1NS(=O)(=O)c1cc(Cl)ccc1Cl [FH535] (first compound 1 µM, partner dose 1 µM)",98%,100%,109%,111%,96.7%,93.1%,80%,102%,91.2%,
"Nc1cccc2c1CN(C1CCC(=O)NC1=O)C2=O (stereo not given) [lenalidomide] + O=C(O)C(=O)Nc1sc2c(c1C(=O)O)CCNC2 [TCS401] (first compound 1 µM, partner dose 1.66667 µM)",100%,108%,99.7%,114%,97.3%,107%,101%,93.7%,111%,
"COCC[n+]1c2c(n(Cc3cnccn3)c1C)C(=O)c1ccccc1C2=O + O=C(Nc1ccccc1)c1cc([N+](=O)[O-])ccc1Cl [GW9662] (first compound 0.0004 µM, partner dose 2 µM)",62.3%,94%,79.9%,50.4%,103%,78.9%,81.6%,101%,95.3%,
"COCC[n+]1c2c(n(Cc3cnccn3)c1C)C(=O)c1ccccc1C2=O + COC(=O)c1sccc1S(=O)(=O)Nc1ccc(Nc2ccccc2)cc1OC [GSK0660] (first compound 0.0004 µM, partner dose 1 µM)",50.7%,77.8%,65.6%,80%,90.2%,70%,71.8%,96%,83.3%,
"Nc1cccc2c1CN(C1CCC(=O)NC1=O)C2=O (stereo not given) [lenalidomide] + CCc1ccc(CCOc2ccc(CC3SC(=O)NC3=O)cc2)nc1 [pioglitazone] (first compound 1 µM, partner dose 2 µM)",100%,98.7%,107%,99.7%,95.5%,94%,80.5%,82.9%,94.3%,
"C#Cc1cccc(Nc2ncnc3cc(OCCOC)c(OCCOC)cc23)c1 [erlotinib] + CCc1ccc(CCOc2ccc(CC3SC(=O)NC3=O)cc2)nc1 [pioglitazone] (first compound 0.8 µM, partner dose 2 µM)",90.6%,98.1%,95.7%,93.5%,96.6%,88.9%,91.5%,87.7%,91.1%,
"C#Cc1cccc(Nc2ncnc3cc(OCCOC)c(OCCOC)cc23)c1 [erlotinib] + OCCn1cc(-c2cnc3nnn(Cc4ccc5ncccc5c4)c3n2)cn1 [PF04217903] (first compound 0.8 µM, partner dose 1 µM)",,88.4%,104%,89.4%,108%,113%,86.4%,101%,100%,98.4%
"O=C(CCCCCCC(=O)Nc1ccccc1)NO [vorinostat] + O=C(O)C(=O)Nc1sc2c(c1C(=O)O)CCNC2 [TCS401] (first compound 0.08 µM, partner dose 1.66667 µM)",92.6%,103%,84.2%,114%,68.8%,97.5%,89.5%,86.8%,72.5%,
"Cn1c(Nc2ccc(C(F)(F)F)cc2)nc2cc(Oc3ccnc(-c4ncc(C(F)(F)F)[nH]4)c3)ccc21 + COc1ccc(COc2ccc(Cc3cnc(N)nc3N)cc2OC)cc1 [GW2580] (first compound 0.08 µM, partner dose 1 µM)",86.2%,69.6%,75.2%,76.5%,65.9%,65.3%,83%,50.2%,57%,
"C#Cc1cccc(Nc2ncnc3cc(OCCOC)c(OCCOC)cc23)c1 [erlotinib] + Nc1cccc2c1CN(C1CCC(=O)NC1=O)C2=O [lenalidomide] (first compound 0.8 µM, partner dose 1 µM)",99.4%,93.4%,89%,88.4%,88.7%,77.8%,,,87.7%,
"OCc1c[nH]c2ccccc12 [Indole-3-carbinol] + NCC(=O)Nc1ccc(-n2nc(C(F)(F)F)cc2-c2ccc3c(ccc4ccccc43)c2)cc1 [OSU03012] (first compound 0.8 µM, partner dose 1 µM)",,58.3%,94.1%,89.9%,75.3%,50.9%,82.6%,68%,79.1%,
"C#Cc1cccc(Nc2ncnc3cc(OCCOC)c(OCCOC)cc23)c1 [erlotinib] + COc1ccc(Cl)c(Nc2nc3ccccc3nc2NS(=O)(=O)c2cccc(NC(=O)C(C)(C)N)c2)c1 [XL147] (first compound 0.8 µM, partner dose 0.8 µM)",,79.5%,82.2%,86.8%,70.5%,102%,,,82.4%,
"COCC[n+]1c2c(n(Cc3cnccn3)c1C)C(=O)c1ccccc1C2=O + CCN(CC)CCCCNc1ncc2cc(-c3cc(OC)cc(OC)c3)c(NC(=O)NC(C)(C)C)nc2n1 [PD173074] (first compound 0.0004 µM, partner dose 0.1 µM)",64%,85.3%,74.8%,92.4%,111%,114%,80.1%,108%,92.1%,
"C#Cc1cccc(Nc2ncnc3cc(OCCOC)c(OCCOC)cc23)c1 [erlotinib] + Oc1nc(-c2ccc(C(F)(F)F)cc2)nc2c1CSCC2 [XAV939] (first compound 0.8 µM, partner dose 2 µM)",92.8%,91.5%,87.9%,86.3%,82.7%,120%,94%,75.8%,88.1%,
"Cn1c(Nc2ccc(C(F)(F)F)cc2)nc2cc(Oc3ccnc(-c4ncc(C(F)(F)F)[nH]4)c3)ccc21 + COC(=O)c1sccc1S(=O)(=O)Nc1ccc(Nc2ccccc2)cc1OC [GSK0660] (first compound 0.08 µM, partner dose 1 µM)",79.3%,68.6%,76.3%,63.5%,56.3%,44.9%,71%,33.5%,49.2%,
"C#Cc1cccc(Nc2ncnc3cc(OCCOC)c(OCCOC)cc23)c1 [erlotinib] + Cc1cc([N+](=O)[O-])ccc1NS(=O)(=O)c1cc(Cl)ccc1Cl [FH535] (first compound 0.8 µM, partner dose 1 µM)",89.2%,91.5%,98.3%,102%,88.2%,94.5%,93.3%,74.4%,92%,
"Nc1cccc2c1CN(C1CCC(=O)NC1=O)C2=O (stereo not given) [lenalidomide] + CCN(CC)CCCCNc1ncc2cc(-c3cc(OC)cc(OC)c3)c(NC(=O)NC(C)(C)C)nc2n1 [PD173074] (first compound 1 µM, partner dose 0.1 µM)",101%,106%,106%,134%,89.5%,98.4%,98.5%,99.8%,105%,
"O=C(CCCCCCC(=O)Nc1ccccc1)NO [vorinostat] + CCN(CC)CCCCNc1ncc2cc(-c3cc(OC)cc(OC)c3)c(NC(=O)NC(C)(C)C)nc2n1 [PD173074] (first compound 0.08 µM, partner dose 0.1 µM)",97.1%,99.4%,96.7%,98.6%,86.5%,124%,80.9%,107%,91.5%,
"COCC[n+]1c2c(n(Cc3cnccn3)c1C)C(=O)c1ccccc1C2=O + CCCCCCCCCCCC1=C(O)C(=O)C=C(O)C1=O [Embelin] (first compound 0.0004 µM, partner dose 1.2 µM)",61.2%,95.1%,91.2%,78.8%,112%,83.8%,71%,102%,93.8%,
"Nc1cccc2c1CN(C1CCC(=O)NC1=O)C2=O (stereo not given) [lenalidomide] + CC(C)CCN1c2nc(Nc3cc(F)c(O)c(F)c3)ncc2N(C)C(=O)C1C [BID1870] (first compound 1 µM, partner dose 0.2 µM)",104%,82%,130%,99.1%,86.6%,108%,100%,100%,86.2%,
"C#Cc1cccc(Nc2ncnc3cc(OCCOC)c(OCCOC)cc23)c1 [erlotinib] + COc1ccc(-c2ccc3c(N4CCOCC4)nc(N4C[C@@H](C)O[C@@H](C)C4)nc3n2)cc1CO [KU0063794] (first compound 0.8 µM, partner dose 0.02 µM)",97.5%,80.1%,96.9%,79.4%,79.5%,67.5%,95%,68.5%,82.9%,
"OCc1c[nH]c2ccccc12 [Indole-3-carbinol] + Clc1ccc(Nc2nnc(Cc3ccncc3)c3ccccc23)cc1 [vatalanib] (first compound 0.8 µM, partner dose 2 µM)",,79.5%,89.6%,82.1%,81%,90%,,,91.2%,
"Nc1cccc2c1CN(C1CCC(=O)NC1=O)C2=O (stereo not given) [lenalidomide] + Oc1cc(-c2nc(-c3ccccc3)[nH]c2-c2ccncc2)ccc1Cl [L779450] (first compound 1 µM, partner dose 0.2 µM)",,91.2%,91.3%,90%,85.2%,92.6%,101%,72%,70.8%,
